Data set [1] relates to HeyA8. Put plainly: cell viability relative to lipid-only control; higher = less toxic. As to conditions: concentration: 10 nM; 96 h; Homo sapiens. As to the method:
(§1)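 Arrayed screen of 4096 siRNA duplexes, each carrying one of all possible 6mer seeds at guide-strand positions 2-7 in a fixed neutral 19mer scaffold (constant flanks: U at position 1, then ACAUGUAAACCA, plus a 3' AA overhang). The passenger strand is 2'-O-methylated at positions 1-2 so only the guide strand loads into RISC. Duplexes were reverse-transfected at 10 nM with RNAiMAX in triplicate in 384-well plates; viability was read by CellTiter-Glo ATP content 96 h after transfection. Values are % viability normalised to lipid-only wells (HeyA8, H460, M565) or to siNT1 (3LL).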

For data set [2], the system named is H460. Described as above. The following applies: concentration: 10 nM; 96 h; Homo sapiens. As to the method:
as §1

In data set [3] the test system is M565. The description is as above. As to conditions: concentration: 10 nM; 96 h; Mus musculus. How it is done: as §1
The test system of data set [4] is 3LL. Description: cell viability relative to siNT1 control; HeyA8 human ovarian and H460 human lung cancer; M565 mouse liver and 3LL mouse lung cancer; siNT1 is a non-toxic control siRNA; higher = less toxic. The following applies: concentration: 10 nM; 96 h; Mus musculus. How it is done: as §1

± gives the uncertainty stated by the source. Shown are siRNA guide strands that differ only in the seed, positions 2 to 7.
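For cell viability relative to lipid-only control in this document: reverse lipid transfection in 384-well plates, in triplicate, of duplexes on a non-toxic 19mer backbone with passenger strand 2′-O-methylated at positions 1 and 2, luminescence viability read-out.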
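For cell viability relative to siNT1 control in this document: Luminescence-based viability of cells reverse transfected in 384-well plates with lipid-complexed siRNAs built on a non-toxic 19mer backbone whose passenger strand carries 2′-O-methyl groups at positions 1 and 2, triplicates.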

Turning to UGUGAGGACAUGUAAACCAAA, the cell viability – broadly, a read-out of living cells in per cent, often relative to untreated cells – is 25.2 ± 2.8% in data set [1], 23.9 ± 1.6% in data set [2], 34.1 ± 8.1% in data set [3] and 30.4 ± 18% in data set [4].
The corresponding values for UUUCUAGACAUGUAAACCAAA are 98.9 ± 3.6%, 43.6 ± 6.8%, 79.1 ± 7.1% and 86.3 ± 7.4%.
UUUGCGUACAUGUAAACCAAA: the cell viability in data set [1] amounted to 102 ± 7.9%; in data set [2] it was 75.8 ± 10%; in data set [3], 69.2 ± 10%; in data set [4], 90.1 ± 7.1%.
The corresponding values for UUAGAUGACAUGUAAACCAAA are 86.3 ± 6.1%, 84.1 ± 7.2%, 63.9 ± 4.7% and 87.1 ± 10%.
Consider UUCGAGUACAUGUAAACCAAA, for which the cell viability in data set [1] is 80.8 ± 5.2%; in data set [2], 75.9 ± 18%; in data set [3], 65.1 ± 6.6%; in data set [4], 77.2 ± 15%.
As to UGCCCCCACAUGUAAACCAAA, the cell viability in data set [1] is 41.9 ± 1.4%; in data set [2], 45.7 ± 4.2%; in data set [3], 42.1 ± 2%; in data set [4], 24.2 ± 0.97%.
The corresponding values for UUAAUAGACAUGUAAACCAAA are 82 ± 0.96%, 68.5 ± 14%, 94.5 ± 5.3% and 85.2 ± 8.2%.
UAGUAGUACAUGUAAACCAAA: the cell viability in data set [1] came to 10.8 ± 1.4%; in data set [2] it was 15.8 ± 6%; in data set [3] it was 84.9 ± 7.9%; in data set [4], 28.6 ± 5%.
As for UCUUCGUACAUGUAAACCAAA, the cell viability is 74.7 ± 6.1% in data set [1], 75.4 ± 7.9% in data set [2], 63.4 ± 5% in data set [3] and 104 ± 12% in data set [4].
For the sequence UGCACUAACAUGUAAACCAAA, the cell viability in data set [1] is 80.1 ± 7.8%; in data set [2], 68 ± 10%; in data set [3] it was 60.6 ± 1.9%; in data set [4], 88.4 ± 9.7%.
The corresponding values for UGUUUACACAUGUAAACCAAA are 92.7 ± 9.9%, 66.9 ± 10%, 71.5 ± 14% and 87.3 ± 7%.
For UUUCCAUACAUGUAAACCAAA, the cell viability in data set [1] was 79.3 ± 2.3%; in data set [2], 68.8 ± 8.2%; in data set [3], 98.3 ± 15%; in data set [4] it was 91.5 ± 4.1%.
For the sequence UCAUUGCACAUGUAAACCAAA, the cell viability in data set [1] worked out at 39.9 ± 4.7%; in data set [2], 50.4 ± 3.4%; in data set [3] it was 28.2 ± 2%; in data set [4], 70.2 ± 8%.
The corresponding values for UGGGCCUACAUGUAAACCAAA are 3.05 ± 0.19%, 16.1 ± 3.8%, 11.8 ± 2% and 26.5 ± 5.2%.
Turning to UUCUUAGACAUGUAAACCAAA, the cell viability in data set [1] was 101 ± 10%; in data set [2] it was 77.8 ± 12%; in data set [3] it was 78.5 ± 20%; in data set [4] it was 88.8 ± 8.4%.
The corresponding values for UCAUGGAACAUGUAAACCAAA are 41.3 ± 3%, 22.5 ± 2.4%, 25 ± 7.2% and 89.4 ± 14%.
Turning to UUUGCCCACAUGUAAACCAAA, the cell viability in data set [1] came to 79.4 ± 5.5%; in data set [2] it was 57.2 ± 6.2%; in data set [3], 46.6 ± 8.3%; in data set [4] it was 38.5 ± 6%.
The corresponding values for UGAUCACACAUGUAAACCAAA are 34.1 ± 4.4%, 45.1 ± 12%, 20.1 ± 7.6% and 44.1 ± 18%.
The corresponding values for UCUCGUAACAUGUAAACCAAA are 89.4 ± 13%, 72.6 ± 10%, 63.3 ± 13% and 98 ± 18%.
The corresponding values for UAGGCCAACAUGUAAACCAAA are 48.8 ± 0.54%, 62.6 ± 8%, 15.1 ± 1.5% and 70.3 ± 5.9%.
Turning to UAUAGAUACAUGUAAACCAAA, the cell viability in data set [1] came to 90.4 ± 9.2%; in data set [2], 69.4 ± 4.9%; in data set [3] it was 102 ± 10%; in data set [4] it was 107 ± 17%.
Consider UAUAUGCACAUGUAAACCAAA, for which the cell viability was determined as 11.3 ± 0.78% in data set [1], 32.4 ± 1% in data set [2], 70.5 ± 22% in data set [3] and 8.85 ± 0.67% in data set [4].
As to UCUGGGCACAUGUAAACCAAA, the cell viability in data set [1] worked out at 2.52 ± 0.071%; in data set [2], 16.9 ± 2.6%; in data set [3] it was 11.3 ± 1.5%; in data set [4] it was 22.5 ± 5.6%.
Take UGUUACGACAUGUAAACCAAA: the cell viability was found to be 83.1 ± 11% in data set [1], 63.3 ± 2.6% in data set [2], 63.7 ± 9% in data set [3] and 101 ± 12% in data set [4].
The corresponding values for UGGGGGCACAUGUAAACCAAA are 1.52 ± 0.12%, 8.02 ± 0.84%, 7.44 ± 1.4% and 6.6 ± 3.6%.
Turning to UGUCAGCACAUGUAAACCAAA, the cell viability in data set [1] was 31.9 ± 1.5%; in data set [2], 35.4 ± 6.8%; in data set [3] it was 9.42 ± 1.1%; in data set [4] it was 8.02 ± 4.9%.
The corresponding values for UUAUAAGACAUGUAAACCAAA are 100 ± 9%, 77.5 ± 24%, 94.3 ± 6.9% and 71.7 ± 11%.
The corresponding values for UGCGGCGACAUGUAAACCAAA are 4.4 ± 0.23%, 17.1 ± 1.6%, 8.71 ± 2.1% and 11.6 ± 3.6%.
The corresponding values for UCGUAUCACAUGUAAACCAAA are 49.7 ± 1.5%, 66.6 ± 0.84%, 76.9 ± 1.3% and 88 ± 14%.

(Values after the supplement of paper PMC6206098.)
